Data on 88 compounds can be found in publication PMC4336329 (PLoS ONE, 2015).

Among all 310,000 compounds or so, about 14,000 (4.5%) showed an effect of 50% or more. Effects have a minus sign here. The list shows a part of the results.
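Further: peak tail current of the secondary pulse compared with the same well before compound.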

human ether-à-go-go-related gene (hERG) potassium channel, sequence (Q12809 whole entry, looked up): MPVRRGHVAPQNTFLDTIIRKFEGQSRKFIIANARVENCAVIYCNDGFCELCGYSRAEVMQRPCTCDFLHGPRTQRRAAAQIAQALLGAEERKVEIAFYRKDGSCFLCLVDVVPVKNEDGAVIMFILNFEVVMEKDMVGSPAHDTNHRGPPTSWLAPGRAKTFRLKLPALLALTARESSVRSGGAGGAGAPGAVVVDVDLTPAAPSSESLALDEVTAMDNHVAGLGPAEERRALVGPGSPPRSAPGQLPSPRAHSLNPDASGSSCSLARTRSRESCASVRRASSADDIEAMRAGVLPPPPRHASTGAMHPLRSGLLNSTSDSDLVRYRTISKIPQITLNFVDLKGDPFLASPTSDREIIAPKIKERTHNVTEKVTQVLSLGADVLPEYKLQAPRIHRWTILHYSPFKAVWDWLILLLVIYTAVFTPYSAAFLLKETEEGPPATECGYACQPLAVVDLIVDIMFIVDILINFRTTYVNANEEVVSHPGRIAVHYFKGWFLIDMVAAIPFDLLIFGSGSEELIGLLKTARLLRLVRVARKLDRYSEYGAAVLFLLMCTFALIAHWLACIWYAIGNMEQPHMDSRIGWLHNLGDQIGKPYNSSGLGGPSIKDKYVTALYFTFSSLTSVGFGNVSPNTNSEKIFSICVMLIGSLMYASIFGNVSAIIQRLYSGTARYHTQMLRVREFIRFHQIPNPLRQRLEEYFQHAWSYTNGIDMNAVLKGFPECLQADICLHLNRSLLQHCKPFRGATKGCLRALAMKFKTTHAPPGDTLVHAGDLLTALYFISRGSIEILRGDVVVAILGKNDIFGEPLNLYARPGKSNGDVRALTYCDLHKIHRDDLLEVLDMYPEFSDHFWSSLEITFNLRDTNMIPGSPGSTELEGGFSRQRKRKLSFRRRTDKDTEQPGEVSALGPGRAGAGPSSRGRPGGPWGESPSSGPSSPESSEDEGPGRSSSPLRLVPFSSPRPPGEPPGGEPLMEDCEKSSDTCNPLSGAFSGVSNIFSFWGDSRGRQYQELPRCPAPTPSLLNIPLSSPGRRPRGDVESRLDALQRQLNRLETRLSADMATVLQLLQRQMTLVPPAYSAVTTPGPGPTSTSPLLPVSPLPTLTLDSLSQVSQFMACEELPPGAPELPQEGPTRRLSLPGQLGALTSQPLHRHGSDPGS

This assay addresses human ether-à-go-go-related gene (hERG) potassium channel (human, UniProt Q12809). Description: primary screen, population patch clamp on CHO cells stably expressing hERG.
`C=CCNC(=O)NC(=O)COC(=O)/C=C/c1cccc([N+](=O)[O-])c1`: the “hERG current change (%, negative = inhibition) at 10uM” value is given as -24.6%. As for `Cl.O=C(Cc1ccccc1)NCCN1CCCC1`, the figure is -12.3%; as for `O=C(O)CCN=Cc1c(O)c2ccccc2oc1=O`, 8.66%. As for `Cc1ccc(NC(=O)N/C=C/c2ccco2)cc1C`, the figure is -1.57%; as for `CCCCNC1C(CC)C(CCC)C(C#N)(C#N)C1(C#N)C#N` (stereo not shown), -5.65%. The figure for `CCc1cccc(C)c1NC(=O)Cn1c(NCCO)nc2ccccc21` is -4.86%; for `COc1cc(Cl)cc(C(=O)O)c1OCC(=O)O` it is 14.3%. Consider `C/C(=C/CCC(C)[C@H]1CC[C@@]2(C)C3=C(CC[C@]12C)[C@@]1(C)CCC(=O)C(C)(C)[C@@H]1CC3)C(=O)O` (stereo partly shown), for which the “hERG current change (%, negative = inhibition) at 10uM” value was found to be 30.1%.

For `CCc1ccccc1N1C(=O)c2ccccc2S1(=O)=O`, the “hERG current change (%, negative = inhibition) at 10uM” value is reported as 1.01%.

For `Cc1ccc(C(C)C)c(OCCNC(=O)c2ccccc2O)c1`, the “hERG current change (%, negative = inhibition) at 10uM” value turned out to be 15%.

Consider `COC(=O)CCC(=O)NNC(=O)c1ccc([N+](=O)[O-])cc1`, for which the “hERG current change (%, negative = inhibition) at 10uM” value was found to be 17.3%. The figure for `Cc1ccc(-n2c(SCc3cc(=O)n4ccsc4n3)nnc2-c2cccnc2)c(C)c1` is -25.5%; for `CCCCn1c(=O)[nH]c(=O)c2c1nc(-c1ccccn1)n2CC` it is -2.03%; for `CCOC(=O)N1CCN(S(=O)(=O)c2c(C(=O)N3CCCCC3)c(C)n(C)c2C)CC1` it is 16.1%. The figure for `COc1ccccc1NC1=NCC(=O)N1Cc1ccccc1` is 3.09%; for `Cl.OCCN(CC#CC(O)(c1ccccc1)C1CCCC1)CCO` (stereo not shown) it is 5.41%; for `CN(C(=O)CC1C(=O)NCCN1Cc1cccc(F)c1F)C1CCOCC1` (stereo not shown) it is 17.3%. As for `OC1(c2ccc(Cl)cc2)CN(c2ccccc2)C2=[N+]1CCS2.[Br-]` (stereo not shown), the figure is -50.4%; as for `COc1ccc(NC(=O)CSc2ccccc2)cc1S(=O)(=O)N1CCCCC1`, -0.0204%; as for `O=C(CNC(=O)c1cccc(F)c1)N/N=C/c1cccc([N+](=O)[O-])c1`, -23.4%. With `CCCOc1ccc(Br)cc1CSC(=N)N.Cl`, the “hERG current change (%, negative = inhibition) at 10uM” value is given as -41.7%. The figure for `CN(Cc1ccccc1)S(=O)(=O)c1ccc(OCC(=O)NCc2cccnc2)cc1` is 0.509%; for `O=S(=O)(Nc1cc(F)ccc1F)c1cccc2nsnc12` it is 11.6%; for `COC(=O)c1cc(NC(=O)c2cccc(Cl)c2)c(=O)oc1/C=C/Nc1cc(C)cc(C)c1` it is 12.6%. As for `Cc1nn(Cc2c(F)c(F)c(F)c(F)c2F)c(C)c1NC(=O)c1nn(C)c(C)c1Br`, the figure is 1.34%. Take `CN1CCN(C(=S)c2ccc(-c3cccc(Cl)c3Cl)o2)CC1`: the “hERG current change (%, negative = inhibition) at 10uM” value is reported as -23.6%. As to `Cc1ccc(-c2nnc(SCC(=O)NC3CCCc4ccccc43)n2N)cc1` (stereo not shown), the “hERG current change (%, negative = inhibition) at 10uM” value is listed as -31.5%.

Regarding `Cc1ccc(S(=O)(=O)N(C)Cc2ccc(C(=O)NN=C(CC(C)C)CC(C)C)cc2)cc1`, the “hERG current change (%, negative = inhibition) at 10uM” value is -19.9%. As for `COc1cccc(C(=O)Oc2cc(C)[nH]c(=O)c2[N+](=O)[O-])c1OC`, the figure is 6.93%; as for `COc1ccccc1C(=O)NC(=S)Nc1ccc(Cc2ccncc2)cc1`, 15%; as for `CCOC(=O)c1sc2nc(C)nc(Nc3ccccc3)c2c1C.Cl`, 5.43%. The figure for `Cc1ccc(C)c(NC(=O)Cn2nc([N+](=O)[O-])c(Br)c2C)c1` is -9.68%; for `O=C(CSc1nnc(-c2ccccc2)o1)NC1CC1` it is 10.9%; for `COc1ccc2nc(NC(=O)C3CC(=O)N(c4ccccc4)C3)sc2c1` (stereo not shown) it is -51.7%. On to `CC1CN(C(=O)N2CCOCC2)CCN1C(=O)N1CCOCC1` (stereo not shown), for which the “hERG current change (%, negative = inhibition) at 10uM” value stood at 10.2%. As for `O=C(N/C(=C/c1cn(-c2ccccc2)nc1-c1ccccc1)C(=O)N1CCOCC1)c1ccc(Cl)cc1Cl`, the figure is 17.7%; as for `CCCC(=O)c1c(NCCO)cc(C)oc1=O`, 11.7%; as for `CS(=O)(=O)c1cccc(C(=O)OCC(=O)NCc2cccs2)c1`, -4.72%.

In the case of `Cc1ccc(S(=O)(=O)N(C)C)cc1NC(=O)Cn1c(CN2CCOCC2)nc2ccccc2c1=O`, the “hERG current change (%, negative = inhibition) at 10uM” value was determined as 7.93%.

As to `CS(=O)(=O)N(CC(=O)N1CCc2ccccc2C1)c1ccccc1F`, the “hERG current change (%, negative = inhibition) at 10uM” value is on record as -8.33%. For the compound `O=S(=O)(c1cccc(-c2nc3ccccc3s2)c1)N1CCCC1`, the “hERG current change (%, negative = inhibition) at 10uM” value is given as 0.88%.

On to `O=C(NCc1ccon1)C1CCC(=O)N(CCc2ccc(Cl)cc2)C1` (stereo not shown), for which the “hERG current change (%, negative = inhibition) at 10uM” value is -37.2%. As for `CC(=O)N1CCc2cc(S(=O)(=O)N3CCc4ccccc4C3)ccc21`, the figure is 8.21%. As for `Cc1ccc(OCC(=O)NNC(=O)c2ccccc2OCc2c(C)noc2C)cc1`, the figure is -16.3%; as for `Cc1c(-c2ccccc2)[n+](=O)c2c(n1[O-])CCCCC2`, 4.96%. Regarding `CCn1cc(C(=O)OCC(=O)c2cc(C)n(-c3ccccc3F)c2C)c(=O)c2ccc(C)nc21`, the “hERG current change (%, negative = inhibition) at 10uM” value is reported as -12.8%. Take `Cc1ccc(C(=O)NCCc2nnc3ccc(SCC(=O)N4CCCC4)nn23)cc1`: the “hERG current change (%, negative = inhibition) at 10uM” value was found to be 0.507%. On to `Cc1cc(-c2ccc(Cl)cc2)n2nc(N)nc2n1`, for which the “hERG current change (%, negative = inhibition) at 10uM” value is recorded as -10%. The figure for `O=c1[nH]c2cc3c(cc2cc1CN(Cc1nnnn1CC1CCCO1)C1CCCC1)OCO3` (stereo not shown) is -4.9%; for `Cc1ccc(C(=O)NCC(=O)OCC(=O)NC2CCS(=O)(=O)C2)cc1C` (stereo not shown) it is 12.8%; for `COc1ccc(N/C=C(\C#N)S(=O)(=O)c2ccc(OC)cc2)cc1` it is 3.33%. The figure for `CC1=NN(C(=O)COc2cc(C)ccc2C(C)C)C(O)(c2ccccc2)C1` (stereo not shown) is -0.75%. As for `CCOc1ccc(NS(=O)(=O)c2ccc(C(=O)N3CCN(C(C)=O)CC3)cc2)cc1`, the figure is 26.6%; as for `CCOC(=O)C(Cc1c[nH]c2ccccc12)NC(=O)CNC(C)=O` (stereo not shown), -20.6%. For `CCOC(=O)c1c(O)cc(C)[nH]c1=O`, the “hERG current change (%, negative = inhibition) at 10uM” value is listed as 23.8%. The figure for `COc1cccc(-c2noc(Cn3nc(C(=O)O)c4ccccc4c3=O)n2)c1` is -0.0317%; for `O=C(CCCCC(=O)N1CCOCCOCCOCC1)OCc1ccccc1` it is 2.33%. As for `CC(C)Oc1ccc(C(CC(=O)O)n2cnnn2)cc1` (stereo not shown), the figure is 19.7%; as for `CN(c1ccccc1C(N)=O)S(=O)(=O)c1ccccc1`, 11%; as for `C=CCS/C(=N\n1cnc2ccccc2c1=O)N1CCCCC1`, -17.1%. For `O=C1C2CCCCC2C(=O)N1c1ccc(S(=O)(=O)Nc2ncccn2)cc1` (stereo not shown), the “hERG current change (%, negative = inhibition) at 10uM” value was -1.48%.

Turning to `Cc1cccc(OCC(=O)Nc2ccc(S(=O)(=O)Nc3ccccn3)cc2)c1`, the “hERG current change (%, negative = inhibition) at 10uM” value is 8.15%.

Consider `CC(C)C[C@H]1CN=C(Nc2ccccc2)N1CCCC1CCCC1`, for which the “hERG current change (%, negative = inhibition) at 10uM” value is -65.9%.

Take `CCn1c(=NC(=O)CSC(C)=O)sc2cc(F)ccc21`: the “hERG current change (%, negative = inhibition) at 10uM” value was -29.6%. The figure for `NC(=O)CSc1oc(-c2cccs2)nc1S(=O)(=O)c1ccccc1` is -15.5%; for `COc1ccc(N2CCN(CC(O)COc3cc(C)cc(C)c3)CC2)cc1.Cl` (stereo not shown) it is -48.8%.

Turning to `CC12CCC(C(=O)Nc3ccccc3-n3cccc3)(CC1=O)C2(C)C` (stereo not shown), the “hERG current change (%, negative = inhibition) at 10uM” value is recorded as 0.661%. As for `CCOc1ccc(Oc2ccccc2NC(=O)CN2C(=O)NC3(CCCC3)C2=O)cc1`, the figure is -15.8%. The figure for `CC(C)[C@H](NC(=O)c1ccc(F)cc1)C(=O)N(C)Cc1cccs1` is -13.8%. As for `C=C(C)C1CC=C(C)/C(=N/NC(=O)c2ccccc2[N+](=O)[O-])C1` (stereo not shown), the figure is 10.3%. `CCCc1ccc2oc(C(=O)N(C)Cc3cnccn3)c(C)c2c1`: the “hERG current change (%, negative = inhibition) at 10uM” value is given as -10.9%. As for `c1ccc(-n2cnc3cc(NCc4ccco4)ccc32)cc1`, the figure is -49.8%; as for `COc1cc(C(C)=O)ccc1OC(=O)C(C)N1C(=O)c2ccccc2C1=O` (stereo not shown), -13%.

As for `CCC1CCCCN1CCCNC(=O)c1ccc(CS(=O)(=O)Cc2ccc(Cl)cc2)o1` (stereo not shown), the “hERG current change (%, negative = inhibition) at 10uM” value is -34.5%. The figure for `CCC(=O)N1CCc2cc(S(=O)(=O)NCCN3CCCCC3CC)ccc21` (stereo not shown) is -17.5%; for `COC(=O)C1C(=O)c2c(n[nH]c2C)CC1(C)C` (stereo not shown) it is 33.5%. For `CC1CC(C)(C)NC(=S)N1CCCC(=O)N1CCN(c2ccc(F)cc2)CC1` (stereo not shown), the “hERG current change (%, negative = inhibition) at 10uM” value is reported as -20.8%. The figure for `Cc1ccc(-c2nnc(CN3CCN(C)CC3)o2)cc1` is -3.18%. The figure for `CC(C)Cn1c(O)c2ccc(C(=O)N=NC(=O)c3cccnc3)cc2c1O` is 17%; for `COCCN(C(=O)/C=C/c1cccc([N+](=O)[O-])c1)c1c(N)n(Cc2ccccc2)c(=O)[nH]c1=O` it is -8.98%. As for `C/[N+]([O-])=C\c1coc2ccccc2c1=O`, the figure is -1.4%; as for `Cl.OCCCNCc1ccc(-c2ccccc2)cc1`, -2.16%; as for `O=C(Nc1cccc(S(=O)(=O)N2CCOCC2)c1)c1cnccn1`, -13.7%. Take `CCOc1ccc(CCNC(=O)C2=C(C)C(=O)OC23CCCCC3)cc1OCC`: the “hERG current change (%, negative = inhibition) at 10uM” value is 19.4%. The figure for `COc1cc2c(cc1OC)C(c1c(O)n(CCc3ccccc3)c(=S)[nH]c1=O)NCC2` (stereo not shown) is 18%. The figure for `COc1ccc(OCC(O)Cn2c(N)nc3c2c(=O)[nH]c(=O)n3C)cc1` (stereo not shown) is 6.58%; for `O=C(COc1ccccc1)NCC(=O)N/N=C/c1cc(Br)ccc1OCc1ccccc1` it is 14%. As for `COc1ccc(Br)cc1C(=O)Nc1ccc(N2CCCC2)cc1`, the “hERG current change (%, negative = inhibition) at 10uM” value came out at 24.1%.
